In PubChem BioAssay AID1345083 (National Center for Advancing Translational Sciences (NCATS), 2018):
“And” between values parts separate entries of the source, which are not always exact repeats. Equal values may be shown once. Out of some 94,000 compounds screened, about 6,200 (6.6%) were called active. Inconclusive results, whose numbers are uncertain, are shown with a selection of clear calls. Calls come from the whole dose curve; as a rule, active = well fitted inhibition curve with a large enough effect; inconclusive = small, poorly fitted or top-dose-only effect; inactive = flat fitted curve, though single readings scatter. Where the call is inconclusive, the potency comes from a doubtful curve fit.

Assay: Cytotoxic Profiling in HEK 293 Cell Line of Diverse Libraries Using Quantitative High-Throughput Screening; note: nearly all actives have a fitted effect of over 60% in size
Conditions: HEK 293 viability, ATP luminescence (CellTiter-Glo), 48-72 h; activity change, negative = cytotoxicity: at 115 µM (top of the series) unless noted; series mostly up to 115 µM
Outline: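 Viability of HEK 293 cells, plated at 250 cells/well, was judged by cellular ATP after compound treatment for 48 or 72 hr. Luminescence was imaged 10 min after CellTiter-Glo addition at room temperature.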
% is set by controls: 0 for no effect and ±100 for the full control effect; potency is the fitted concentration of half-maximal effect; tags give direction and shape of the fitted curve.

| SMILES | Potency | activity change, negative = cytotoxicity |
| --- | --- | --- |
| O=C(NC1CCN(Cc2cccc(-c3cccs3)c2)CC1)c1ccc(Cl)cc1 | inconclusive: 20 µM [inhibitor, partial curve, poor fit] and inconclusive: 7.94 µM [inhibitor, full curve, poor fit] |  |
| O=C(c1ccc2oc(-c3ccnc(Cl)c3)nc2c1)N1CCOCC1 | inconclusive: 11.2 µM [inhibitor, full curve, poor fit] |  |
| O=C1NC(=NC2CCCCC2)C2(CCN(Cc3ccccc3)CC2)N1c1cccnc1 |  | inactive: 2.71% |
| COc1ccc(C(=O)N2CCc3ccc(C(=O)NCc4cccs4)cc32)cc1 | inconclusive: 89.1 µM [inhibitor, single point] |  |
| CN(C)C[C@@H]1CN(c2ncccn2)C[C@H]1NS(=O)(=O)c1ccc(Cl)cc1 | inconclusive: 89.1 µM [inhibitor, single point] |  |
| CC(C)c1cccc(-c2cc(NCc3ccccn3)nc3[nH]ccc23)n1 | active: 44.7 µM |  |
| COCCn1ncc(N2CCC(C(=O)N3CCC(C(N)=O)(N4CCCCC4)CC3)C2)cc1=O (configuration not stated) |  | inactive: -1.71% |
| CCC(C)NC(=O)Cn1cccc1-c1nc(-c2ccc(OC)c(F)c2)no1 (configuration not stated) | inconclusive: 8.91 µM [inhibitor, full curve, poor fit] |  |
| O=C1NCCCCCCN(S(=O)(=O)c2cccnc2)[C@H]2C[C@H](c3nc(-c4cccnc4)no3)C[C@@H]12 | inconclusive: 100 µM [inhibitor, single point] |  |
| Cc1ccc(C2Cn3nnc(C(=O)N4CCC(C(=O)NCc5ccccc5F)CC4)c3CO2)cc1 (configuration not stated) |  | inactive: -0.975% |
| O=C(c1cccs1)N1CCC2(CC1)CC(Cc1ccc(F)cc1)CCO2 (configuration not stated) | inconclusive: 39.8 µM [inhibitor, full curve, poor fit] |  |
| COc1ccc(OCc2nc(C)c(CCO)c(=O)n2CC(=O)NC(C)CCc2ccccc2)cc1 (configuration not stated) | inconclusive: 89.1 µM [inhibitor, single point] |  |
| COCCn1c(=O)c(C(=O)NC(C)c2ccc(F)cc2)nc2cccnc21 (configuration not stated) |  | inactive: 2.31% |
| COc1cccc(-c2nc3cc4c(cc3cc2CN2CCCOCC2)OCO4)c1OC | inconclusive: 79.4 µM [inhibitor, partial curve] |  |
| COCCNC(=O)c1coc(COc2ccc3c(c2)C(c2ccc(F)cc2)N(C(=O)C(C)C)CC3)n1 (configuration not stated) | active: 8.91 µM |  |
| CCOc1ccc(CN2C(=O)C3(CCOCC3)CC2c2nnnn2C(C)(C)C)cc1OC (configuration not stated) |  | inactive: -11.8% |
| O=c1[nH]c(C2CCCN([S+](=O)([O-])c3cccc(C(F)(F)F)c3)C2)nn1-c1cccc(Cl)c1 (configuration not stated) |  | inactive: 3.67% |
| COc1ccc(CN2CC(Cn3cccc3)Oc3ccncc3[S+]2(=O)[O-])cc1 (configuration not stated) | inconclusive: 56.2 µM [inhibitor, partial curve, poor fit] |  |
| O=C(NCCc1ccccc1F)c1ccc2nnc(C3CCCC3)n2c1 | inconclusive: 56.2 µM [inhibitor, partial curve, poor fit] |  |
| CC(C)c1ccc(S(=O)(=O)N(C)CC2CCOC2)cc1 (configuration not stated) |  | inactive: -18% |
| COc1cc(-c2onc(C)c2C(=O)NCc2ccc(F)cc2F)cc(OC)c1OC | inconclusive: 112 µM [inhibitor, partial curve, poor fit] |  |

| SMILES | Potency | activity change, negative = cytotoxicity |
| --- | --- | --- |
| Cc1ccccc1S(=O)(=O)NCC1Cn2cccc2C(=O)N1C (configuration not stated) | inconclusive: 89.1 µM [inhibitor, single point] |  |
| Cc1ccccc1CN1CCC(N2CCCC(C(=O)NC3CC3)C2)CC1 (configuration not stated) |  | inactive: -0.659% |
| CC(=O)N1CC2(CCCN(CC3CCCCC3)C2)Cc2ccccc21 (configuration not stated) | inconclusive: 89.1 µM [inhibitor, partial curve] |  |
| O=C(NCc1ccc(F)cc1)[C@@H]1CCCN1c1nccc(Nc2ccccc2Cl)n1 | inconclusive: 39.8 µM [inhibitor, partial curve, poor fit] |  |
| O=C(NC1CCCCCC1)C1CCc2nnc(C3CC3)n21 (configuration not stated) |  | inactive: -20.4% |
| CC(C)c1ccc(C(=O)N2CCC[C@H]2c2nc(-c3ccccc3)no2)cc1 | inconclusive: 56.2 µM [inhibitor, partial curve, poor fit] |  |
| O=C(NCc1ccccn1)C1CCN(C(=O)c2ncn3c2COC(c2ccc(Cl)cc2)C3)CC1 (configuration not stated) |  | inactive: -9.85% |
| O=C(NC1CCCCC1)C1(CCO)CCN(c2ncccn2)C1 (configuration not stated) |  | inactive: 1.11% |
| CC1=C[C@@H](CNC(=O)C2CCCCC2)[C@H](C(C)C)C[C@H]1Cc1nc2c(C)cccc2[nH]1 | inconclusive: 28.2 µM [inhibitor, full curve] |  |
| O=C([C@H]1C[C@H](Oc2ccccc2)CN1Cc1ccc2[nH]ccc2c1)N1CCOCC1 |  | inactive: -28.1% |
| Cc1nnc2n1CCC(NC(=O)c1ccoc1)CC2 (configuration not stated) | inconclusive: 89.1 µM [inhibitor, single point] |  |
| CCCNC(=O)N1CCC(O)(c2csc(CN3CCc4ccccc4C3)n2)CC1 | inconclusive: 63.1 µM [inhibitor, partial curve, poor fit] |  |
| Cc1nc(-c2ccccc2)n(CC(=O)Nc2ccc(F)cc2)c(=O)c1CCO | inconclusive: 50.1 µM [inhibitor, partial curve, poor fit] |  |
| O=C(NCCc1ccc(Cl)cc1)C1CCN(c2ccnc3ccnn23)CC1 | inconclusive: 39.8 µM [inhibitor, partial curve, poor fit] |  |
| COc1cc(OC)c(CNC(=O)c2c(C)noc2-c2ccc(OC(F)(F)F)cc2)c(OC)c1 | active: 39.8 µM |  |
| Cc1oc(-c2cccc(Cl)c2)nc1CN1CCOCC1 |  | inactive: -7.91% |
| CC(C)(C)NC(=O)N1CCC(Oc2ncccc2C(=O)N2CCOCC2)C1 (configuration not stated) |  | inactive: -2.28% |
| O=C(NC1CCN(c2cc(-c3ccc(Cl)cc3)[nH]n2)C1)c1ccc(F)c(F)c1 (configuration not stated) | inconclusive: 39.8 µM [inhibitor, partial curve] |  |
| O=C([C@@H]1CCCN1c1nccc(Nc2ccccc2Cl)n1)N1CCCC1 | inconclusive: 31.6 µM [inhibitor, partial curve, poor fit] |  |
| CC(C)n1cc(CN2CCOCCNC(=O)CC2)c2ccccc21 | inconclusive: 79.4 µM [inhibitor, partial curve] |  |
| CC(C)CCN1C(=O)CC[C@]2(C(=O)NCc3cccc(Cl)c3)CCCC[C@@H]12 | inconclusive: 56.2 µM [inhibitor, partial curve, poor fit] |  |

| SMILES | Potency | activity change, negative = cytotoxicity |
| --- | --- | --- |
| CC(=O)N1CCCC(N2C(=O)c3c(c(C)nn3-c3ccccc3)C2C2CC2)C1 (configuration not stated) |  | inactive: -10.6% |
| O=C(N[C@H]1CCN2C(=O)c3cc(-c4ccc(F)cc4F)ccc3NC(=O)[C@H]12)c1cccc(F)c1 | inconclusive: 56.2 µM [inhibitor, partial curve, poor fit] |  |
| COc1cccc(CNC(=O)c2cc(-c3ccc(Cl)cc3Cl)nc3c2cnn3C)c1 | inconclusive: 22.4 µM [inhibitor, full curve, poor fit] |  |
| O=C(c1cccc(Cl)c1)N1CCCC(n2cc(-c3nc(-c4ccccc4)no3)nn2)C1 (configuration not stated) | inconclusive: 35.5 µM [inhibitor, partial curve, poor fit] |  |
| O=C(COc1ccccc1)N[C@H]1CO[C@H]2[C@@H]1OC[C@@H]2n1nnnc1-c1ccc2c(c1)OCO2 | inconclusive: 56.2 µM [inhibitor, partial curve, poor fit] |  |
| O=C(c1cccc(Cl)c1)N1CCC(n2cc(-c3nc(-c4ccccc4)no3)nn2)CC1 | inconclusive: 56.2 µM [inhibitor, partial curve, poor fit] |  |
| CCN(CCOC)Cc1cn(C)nc1-c1ccc(C2CCCCC2)cc1 | inconclusive: 56.2 µM [inhibitor, partial curve, poor fit] |  |
| COc1ccc(CNC(=O)c2c(C)noc2-c2cccs2)cc1 | inconclusive: 44.7 µM [inhibitor, partial curve, poor fit] |  |
| Cc1ccc(C)c(-n2nc(-c3c(C)nc4scc(CC(=O)N5CCCC5)n4c3=O)cc2C)c1 | inconclusive: 89.1 µM [inhibitor, single point] |  |
| COc1ccc(CN2CCc3nc(C)nc(-c4ccc(O)cc4)c3C2)cc1 | inconclusive: 44.7 µM [inhibitor, partial curve] |  |
| COc1cccc(C(=O)N2CCC(C(=O)N3CCC4(CC3)CC(=O)Nc3ccccc3O4)CC2)c1 | inconclusive: 89.1 µM [inhibitor, single point] |  |
| COc1ccc(-c2cn3cc(C(=O)N4CCCC4)nc3c(=O)n2CC2CC2)c(F)c1 | active: 31.6 µM |  |
| CS(=O)(=O)N1C[C@H]2CCN(Cc3ccc(Cl)cc3F)C[C@H]21 | inconclusive: 31.6 µM [inhibitor, partial curve] |  |
| CCOC(=O)c1cc2cc(NCC3=CC(C)(C)COc4ccc(OC)cc43)ccc2o1 | inconclusive: 17.8 µM [inhibitor, full curve, poor fit] |  |
| Cc1cnc(C)c(N2CCC(COc3cnc4c(ccn4CC(N)=O)c3)CC2)n1 | inconclusive: 100 µM [inhibitor, partial curve] |  |
| COc1ccc(CN2CCn3c(nn(-c4ccncc4)c3=O)C2)cc1 | inconclusive: 50.1 µM [inhibitor, partial curve, poor fit] |  |
| CN(C(=O)Nc1ccccc1)C1CCc2nn(CC3CC3)c(=O)n2CC1 (configuration not stated) |  | inactive: 4.05% |
| COc1ccc(-c2nc(C3CC3)nc3c2CCN([S+](=O)([O-])c2cccs2)CC3)cc1 |  | inactive: -25.1% |
| Cc1ccc(-c2cn[nH]c2C2CCCN(C(=O)c3[nH]ncc3Cl)C2)cc1 (configuration not stated) | inconclusive: 56.2 µM [inhibitor, partial curve, poor fit] |  |
| Cc1ccccc1Oc1c(CCC(=O)NC2CC2)c(C)nn1-c1ccc(F)cc1 | inconclusive: 50.1 µM [inhibitor, partial curve, poor fit] |  |
